Results on 51 molecules are retold here after PMC6919601, “Identification of Plasmodium dipeptidyl aminopeptidase allosteric inhibitors by high throughput screening” (PLoS ONE, 2019).

The whole screen tested about 110,000 compounds, of which about 230 (0.21%) showed an effect of 50% or more. Some of the results follow.
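Further: 30 min substrate incubation versus DMSO and 10 µM JCP410 controls.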

This assay deals with DPAP1 (Plasmodium falciparum, UniProt Q8IIJ9). Briefly: primary screen, percent inhibition; read by cleavage of a fluorogenic dipeptide substrate; higher = more effect of the substance. Further details: species or system P. falciparum D10 trophozoite lysates; single well.
DPAP1, sequence (Q8IIJ9 whole entry, looked up): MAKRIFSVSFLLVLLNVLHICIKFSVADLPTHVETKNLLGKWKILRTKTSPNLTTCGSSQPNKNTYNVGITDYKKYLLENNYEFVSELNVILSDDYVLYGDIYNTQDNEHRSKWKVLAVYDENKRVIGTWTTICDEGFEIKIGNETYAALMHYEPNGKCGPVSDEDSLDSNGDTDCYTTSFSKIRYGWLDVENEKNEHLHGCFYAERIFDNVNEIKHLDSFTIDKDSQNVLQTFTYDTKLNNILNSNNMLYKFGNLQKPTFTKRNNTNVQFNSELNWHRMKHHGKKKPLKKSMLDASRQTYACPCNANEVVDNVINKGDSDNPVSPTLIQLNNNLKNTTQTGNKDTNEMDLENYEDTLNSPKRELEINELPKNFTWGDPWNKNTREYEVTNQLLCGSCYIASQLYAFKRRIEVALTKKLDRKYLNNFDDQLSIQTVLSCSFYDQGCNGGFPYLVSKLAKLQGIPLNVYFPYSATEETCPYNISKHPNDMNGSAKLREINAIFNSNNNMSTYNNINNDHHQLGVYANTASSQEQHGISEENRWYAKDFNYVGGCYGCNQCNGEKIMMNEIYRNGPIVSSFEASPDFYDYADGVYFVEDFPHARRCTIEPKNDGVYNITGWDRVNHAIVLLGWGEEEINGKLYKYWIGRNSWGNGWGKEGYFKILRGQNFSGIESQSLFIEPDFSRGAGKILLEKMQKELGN
Regarding `CS(=O)(=O)N(CC(=O)N1CCN(c2ccccc2F)CC1)c1cccc(F)c1`, the “% Inhibition @ 10 uM” value was -0.854%.
As for `CCOc1cc(CNCCCN(CC)CC)ccc1OC`, the figure is -10.9%; as for `C=CCOc1ccc(C2C(C#N)=C(N)OC3=C2C(=O)CC(C)(C)C3)cc1OC` (stereo not drawn), 1.43%.
Consider `CCOC(=O)c1[nH]c(C)c(C(=O)Cc2cccc(Br)c2)c1C`, for which the “% Inhibition @ 10 uM” value came to 3.01%.
In the case of `COc1ccccc1-c1nnc(S)o1` it was 3.72%; in that of `CCOc1ccccc1C1/C(=C(\O)OC)C(C)=Nc2nc(-c3ccccc3)nn21` (stereo not drawn), 5.17%.
As for `CSc1cnn(Cc2ccccc2)c(=O)c1SC`, the figure is 1.67%; as for `CC(C)Cc1ccc(S(=O)(=O)N2CCN(Cc3ccccc3)CC2)cc1`, -0.363%; as for `CN1CCN(C(=O)c2ccc(Cl)cc2Cl)CC1`, 8.67%.
In the case of `Cc1ccc(-n2nc(C)c3c(C)c(CCC(=O)NCCCN4CCCC4)c(C)nc32)cc1C` it was -0.465%.
With `O=C(Nc1ccc(Cl)cc1F)C1CC(=O)N(c2ccc(Cl)cc2)C1` (stereo not drawn), the “% Inhibition @ 10 uM” value is -1.42%.
As for `CC(C)CS(=O)(=O)C1=NN2C(=N)/C(=C\c3ccc(O)cc3)C(=O)N=C2S1`, the figure is -1.54%.
In the case of `CCn1nc(-c2ccccc2)c(N2CCOCC2)nc1=O` it was 16.6%.
For `CC(=O)Nc1ccc(C(=O)Nc2ccc(C(C)C)cc2)cc1`, the “% Inhibition @ 10 uM” value was -3.77%.
With `COc1ccc(C(=O)N2CCN(C(=O)c3ccco3)CC2)cc1COc1ccc(Br)cc1`, the “% Inhibition @ 10 uM” value is reported as -1.88%.
In the case of `COc1ccc(-c2noc(CSc3ccccc3)n2)cc1OC` it was -5.6%; in that of `COCCO/C(O)=C1\C(C)=NC2=C(C(=O)CCC2)C1c1ccccc1OC(C)C` (stereo not drawn), 10.4%; in that of `Cc1c(-c2ccccc2)[n+]([O-])c(-c2ccco2)c(C)[n+]1[O-]`, 1.84%.
As for `CN1CC=C2C(C#N)=C(N)C(C#N)(C#N)C(c3cccc(O)c3)C2C1` (stereo not drawn), the figure is -2.39%; as for `CN(Cc1c(F)cccc1Cl)CC(O)c1ccccc1` (stereo not drawn), -4.14%; as for `CN(CCO)C12CC3CC(CC(O)(C3)C1)C2`, 3.82%.
In the case of `CC(=O)c1ccc(OCC(=O)NC2CCS(=O)(=O)C2)cc1` (stereo not drawn), the “% Inhibition @ 10 uM” value worked out at 3.06%.
As for `CCN1C/C(=C\c2cc(OC)c(OC)cc2OC)C(=O)/C(=C/c2cc(OC)c(OC)cc2OC)C1`, the figure is 1.07%; as for `O=C(COc1ccc(S(=O)(=O)NC2CCCCC2)cc1)Nc1ccc2c(c1)OCO2`, -1.27%.
In the case of `COc1ccc(C(=O)CCN(C)CC(=O)O)cc1` it was 55.8%; in that of `C=CCSc1nc(=O)c2c(n1C)NC(=O)CC2c1cc(Br)ccc1OC` (stereo not drawn), 0.596%; in that of `CN(CCNC(=O)c1cc2c(s1)-c1ccccc1OC2)C1CCCCC1`, -3.08%.
In the case of `O=C1CC(Nc2ccc(F)cc2)C(=O)N1c1ccc(F)cc1` (stereo not drawn) it was -4.68%; in that of `CC1CCN(c2c(NCc3ccc(C(=O)NC4CCCc5ccccc54)cc3)c(=O)c2=O)CC1` (stereo not drawn), -2.25%; in that of `Cc1cccc(Cn2c(NCc3ccc4c(c3)OCO4)nc3c2c(=O)n(C)c(=O)n3C)c1`, 0.0367%.
In the case of `CN1CCC(N(C)Cc2ccccc2Br)CC1`, the “% Inhibition @ 10 uM” value is on record as -0.127%.
In the case of `O=C(c1ccc(Cl)cc1Cl)N1CCN(Cc2ccccc2)CC1` it was 1.57%; in that of `COc1cc(NC(=O)c2ccc(Br)cc2)c(OC)cc1NC(C)=O`, 4.11%.
As for `CCC(C)OC(=O)C(O)(c1ccc(Br)cc1)c1ccc(Br)cc1` (stereo not drawn), the figure is 1.33%; as for `COc1ccc(NC(=O)c2cc(C(C)=O)oc2C)cc1`, -2.2%.
In the case of `COc1ccc(OC)c(NC(=O)c2c(NC(=O)c3cccs3)sc3c2CCCC3)c1` it was -5.58%; in that of `Cc1ccc(-n2ncc3c(N4CCCCC4)ncnc32)cc1C`, -1.79%.
With `C=CCC(CS(=O)(=O)Cc1ccccc1)C(=O)NCC#N` (stereo not drawn), the “% Inhibition @ 10 uM” value is given as -1.83%.
As for `CC(C)(C)c1ccc(C(=O)NCCCn2ccnc2)cc1`, the figure is 4.85%; as for `Cc1ccc(S(=O)(=O)c2nnn3c2nc(N2CCN(c4ccccn4)CC2)c2ccccc23)cc1`, -2.41%; as for `CCCCCC(=O)Nc1ccccc1N1CCOCC1`, -1.21%.
As for `CSc1ccc(NC(=O)c2sc3nc(-c4cccs4)ccc3c2N)cc1`, the figure is -0.68%; as for `CCOC(=O)C1CCCN(CC2CCCCC2)C1` (stereo not drawn), -9.14%; as for `O=S(=O)(c1ccccc1)N1CCN(c2ncnc3sc4c(c23)CCCC4)CC1`, 4.11%.
On to `C=C(C)CN(CC)Cc1cc([N+](=O)[O-])ccc1O`, for which the “% Inhibition @ 10 uM” value was -0.292%.
In the case of `Cc1ccc(S(=O)(=O)N(CC(=O)N2CCCCC2)c2ccc(Cl)cc2C)cc1` it was -0.496%; in that of `CC(=O)C1=C(C)OC(N)=C(C#N)C1c1cccc(O)c1` (stereo not drawn), -2.64%.
In the case of `COCCNC(=O)c1nnc(-c2ccccc2)o1` it was 2.5%.
On to `Fc1ccccc1CN1CCOCC1`, for which the “% Inhibition @ 10 uM” value is reported as -0.603%.
In the case of `COc1ccc(C(=O)NC2(Cc3cc(OC)ccc3OC)N=C3C=CC(C)=CN3C2=O)cc1` (stereo not drawn) it was -0.637%.
In the case of `O=C(c1ccc(Cl)c([N+](=O)[O-])c1)N1CCCc2ccccc21` it was -2.6%.
